Results on 67 compounds are retold here after PubChem BioAssay AID1347073 (National Center for Advancing Translational Sciences (NCATS), 2019).

Out of some 45,000 compounds screened, about 200 (0.44%) were called active. Inconclusive results (about 7%) are left out. The call rests on the fitted dose curve; in most records, active means well fitted activation curve with a large enough effect; inconclusive means small, poorly fitted or top-dose-only effect; inactive means no such curve, though single readings can be large or run the other way. The list shows a part of the results.

A short description of the experiment: qHTS of TDP-43 Inhibitors: NCGC Sytravon Library Screen. Further: 0% is about no effect; nearly all actives have a fitted effect of over 55% in size. The following applies: yeast TDP-43 toxicity rescue, BacTiter-Glo growth, 24 h; series mostly up to 46.1 µM; growth rescue (activation): at the top concentration. The gist of the method: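 TDP-43-expressing yeast, pregrown in raffinose, seeded at OD600 0.02 in galactose medium with compound for 24 hr at 30 deg C. Growth read by BacTiter-Glo luminescence, so rescue of toxicity appears as activation.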
A general note: In qHTS, concentration-response curves come from the screen itself.
In the case of `CC(C)N(C(=O)CN1C(=O)NC(c2ccccc2)(c2ccccc2)C1=O)C(C)C`, the “growth rescue (activation)” value was inactive: 3.13%.
In the case of `COc1cc(/C=C/C(=O)OCC(=O)Nc2ccc(NC(C)=O)cc2)cc(S(=O)(=O)N2CCc3ccccc32)c1OC`, the “growth rescue (activation)” value was inactive: 6.25%.
For `COc1cc(/C=N/NC(=O)c2ccncc2)ccc1Oc1ccc([N+](=O)[O-])cn1`, the “growth rescue (activation)” value was inactive: 8.44%.
As for `O=[N+]([O-])c1ccc(/C=N/Nc2ccnc3cc(Cl)ccc23)o1`, the “growth rescue (activation)” value is inactive: 11.4%.
As to `O=C(CCC(=O)NNc1nc2ccccc2c2nc(-c3ccccc3)nn12)NCCCN1CCCC1=O`, the “growth rescue (activation)” value was inactive: 2.23%.
In the case of `COCCNC(=S)N(Cc1cc2cc(C)ccc2n2nnnc12)C1CCCC1`, the “growth rescue (activation)” value is inactive: 4.35%.
To `Cc1nn(CC(=O)NNC(=O)c2ccccc2F)c([N+](=O)[O-])c1Br` belongs inactive: 9.82%; to `O=C(Cc1nnc(NC(=O)c2cccc([N+](=O)[O-])c2)s1)NCc1ccccc1`, inactive: 2.42%.
With `O=C(Nc1ccccc1C(=O)NC(Cc1c[nH]c2ccccc12)C(=O)O)c1ccccc1` (configuration not stated) the figure was inactive: -18.7%; with `COc1ccccc1N(C)S(=O)(=O)c1ccc(C(=O)OCC(=O)N(C(C)C)C(C)C)cc1`, inactive: -8.97%; with `O=C(NC1CCCC1)C1CCN(C(=O)c2cccc(Cl)c2)CC1`, inactive: 13%.
To `COc1ccc2nc(SCC(N)=O)cc(C)c2c1` belongs inactive: 40.5%; to `CC1CN(C(C)C(=O)NC(c2ccccc2)c2ccccc2)CC(C)O1` (configuration not stated), inactive: -2.9%; to `C(=N\n1cnnc1SCc1ccccc1)/c1ccco1`, inactive: 11.8%.
In the case of `Cn1c(=O)[nH]c(=O)c2c1nc(SCCC(=O)O)n2Cc1cccc(Br)c1`, the “growth rescue (activation)” value is inactive: -2.21%.
To `Cc1ccccc1Nc1nc(N)nc(CSCC(=O)Nc2cccc(Br)c2)n1` belongs inactive: 1.05%; to `CCCCCn1c(=N)c(S(=O)(=O)c2ccc(Cl)cc2)cc2c(=O)n3cccc(C)c3nc21`, inactive: 1.59%.
With `CN(C)CCCNc1nc(N)c([N+](=O)[O-])c(NCCO)n1`, the “growth rescue (activation)” value was inactive: -6.75%.
With `C=CCOc1ccc(Br)cc1CNCCCN1CCOCC1` the figure was inactive: 0.24%; with `CCOC(=O)c1c(-c2ccccc2)csc1NC(=O)/C(C#N)=C/c1ccc(O)c(OC)c1`, inactive: 18.8%; with `CCc1nc(SCC(=O)Nc2nnc(CC(C)C)s2)n[nH]1`, inactive: 11.4%.
Consider `CC(CN1CCN(Cc2ccccc2)CC1)OC(=O)c1ccco1` (configuration not stated), for which the “growth rescue (activation)” value was inactive: -10.5%.
As to `O=C(c1cc(S(=O)(=O)N2CCOCC2)c(Cl)cc1Cl)N1CCCCC1CO` (configuration not stated), the “growth rescue (activation)” value is inactive: 27.9%.
With `O=C(NC1CCCCC1)c1cc(-c2cccc(Cl)c2)on1` the figure was inactive: 15.9%; with `COc1ccc(S(=O)(=O)N2CCN(C(=S)NCCc3ccccc3)CC2)cc1`, inactive: 15%; with `O=C(c1ccoc1)N1CCC2(CCCN(Cc3ccc(F)c(F)c3)C2)C1` (configuration not stated), inactive: 13.1%.
As for `O=C(CSc1ncccn1)Nc1cccc(S(=O)(=O)N2CCOCC2)c1`, the “growth rescue (activation)” value was inactive: 10.4%.
For `CN(C)S(=O)(=O)c1ccc(NC(=O)c2ccncc2)cc1`, the “growth rescue (activation)” value is inactive: -9%.
With `O=C(CC1C(=O)NCCN1Cc1ccc(F)c(F)c1)NCCn1cccn1` (configuration not stated) the figure was inactive: 8.4%; with `Cc1cc2ccccc2n2c(SCC(=O)Nc3ccc(S(=O)(=O)N4CCC(C)CC4)cc3)nnc12`, inactive: 4.91%.
`CCOC(=O)C(CC)n1nc(C)n2c(cc3occc32)c1=O` (configuration not stated): the “growth rescue (activation)” value was inactive: -13%.
Regarding `Cc1ccc(O)c(C(=O)c2cnc3onc(-c4ccc(F)cc4)c3c2)c1`, the “growth rescue (activation)” value is inactive: 4.55%.
Consider `COc1ccc(C2(CNS(=O)(=O)c3ccc(C)cc3)CCOCC2)cc1`, for which the “growth rescue (activation)” value was inactive: 2.75%.
Regarding `Cc1cc(C)n(-c2cc(N3CCN(S(=O)(=O)c4ccc(Cl)cc4)CC3)ccc2[N+](=O)[O-])n1`, the “growth rescue (activation)” value was inactive: 14%.
To `CC(NC(=O)CCCc1c[nH]c2ccccc12)c1ccc(F)cc1` (configuration not stated) belongs inactive: 13.8%; to `CC#CC[N+](C)(C)CCCCCCCCCC`, inactive: 2.2%; to `CC(=O)N/C(=C\c1ccc2c(c1)OCO2)C(=O)NC(C(=O)O)c1ccccc1` (configuration not stated), inactive: 2.06%.
In the case of `COc1ccc(NS(=O)(=O)c2cccc(C(=O)NN=Cc3cc(Br)c(O)c(Br)c3)c2)cc1`, the “growth rescue (activation)” value was inactive: -0.982%.
With `COc1cccc(NC(=O)Cn2cc(C(=O)C3CC3)c3ccccc32)c1`, the “growth rescue (activation)” value is inactive: 17.8%.
With `O=C(O)c1cnn2c(-c3ccc(F)cc3)ccnc12` the figure was inactive: 11.1%; with `O=C(CCCOc1ccc(Cl)cc1Cl)Nc1ccc(O)cc1C(=O)O`, inactive: 7.61%.
To `COc1ccccc1NC(=O)CSc1nnc(CNC(=O)c2ccco2)n1C` belongs inactive: 2.35%; to `COc1ccccc1C(=O)NCCCNC(=O)c1cnccn1`, inactive: -26.6%.
With `CC(=O)NS(=O)(=O)c1ccc(NC(=O)c2ccccn2)cc1` the figure was inactive: 7.99%.
Take `O=C(CNC(c1ccccc1)c1ccccc1)Nc1c(F)cccc1F`: the “growth rescue (activation)” value was inactive: 13.2%.
With `OC(c1ccc(F)c(F)c1)c1nc(-c2ccoc2)cs1` (configuration not stated) the figure was inactive: 18.2%.
To `Nc1cc(=O)[nH]c(SCC(=O)NC2CCCCCCC2)n1` belongs inactive: -16.3%.
In the case of `Cc1noc(C)c1COc1ccc(CC(=O)NCCc2ccccn2)cc1`, the “growth rescue (activation)” value was inactive: 6.99%.
As for `Cc1cc(NC(=O)CN2C(=O)[C@@H]3[C@H](C2=O)[C@@H]2C[C@H]3C(Br)C2Br)no1` (some centres not stated), the “growth rescue (activation)” value is inactive: -26.5%.
With `O=C(CNC(=O)C12CC3CC(CC(C3)C1)C2)N1CCN(S(=O)(=O)/C=C/c2ccccc2)CC1` the figure was inactive: 10.9%.
As for `O=C(O)CCCNC(=O)/C(=C\C=C\c1ccccc1)NC(=O)c1ccccc1Cl`, the “growth rescue (activation)” value is inactive: 3.29%.
Turning to `CCCCOc1cccc(C2c3c(oc4ccccc4c3=O)C(=O)N2c2ccccn2)c1` (configuration not stated), the “growth rescue (activation)” value is inactive: 5.4%.
To `O=C1NCCN(Cc2c(F)cccc2Cl)C1CC(=O)N1CCCO1` (configuration not stated) belongs inactive: 13%.
In the case of `CCc1ccc(OCC(=O)N(CC)CC)cc1`, the “growth rescue (activation)” value is inactive: 5.54%.
As for `Cc1cccc2cc(/C=N/NC(=O)c3ccccc3O)c(Cl)nc12`, the “growth rescue (activation)” value is inactive: 11.8%.
In the case of `COc1ccccc1CNC(=O)C1(C)CCCCN1C` (configuration not stated), the “growth rescue (activation)” value was inactive: -0.568%.
In the case of `Cc1ccc(NC(=Nc2ccc(Br)cc2)N2CCOCC2)cc1C`, the “growth rescue (activation)” value is inactive: 7.79%.
To `COc1ccc(O)c(C=NCC(C)N=Cc2cc(OC)ccc2O)c1` (configuration not stated) belongs inactive: -15.2%.
To `COc1ccccc1-n1nnnc1SCC(=O)Nc1ccc(C)c(N)c1` belongs inactive: 3.85%.
As to `O=C(O)Cn1c2ccccc2c2ccccc21`, the “growth rescue (activation)” value was inactive: 11.2%.
With `CC(=O)NC(c1ccccc1)c1nc(-c2csc3ccccc23)cs1` (configuration not stated), the “growth rescue (activation)” value was inactive: 16.1%.
To `Nc1ccc(S(=O)(=O)NC2(C(F)(F)F)NC(=O)N(c3ccc(F)cc3)C2=O)cc1` (configuration not stated) belongs inactive: 4.87%.
To `O=C(CCc1nnc(-c2ccccc2)o1)c1ccc(Cl)cc1` belongs inactive: -15.8%; to `CC1(C(=O)NS(=O)(=O)c2ccc(Cl)cc2)CCN1C(=O)Cc1ccc(Cl)cc1Cl` (configuration not stated), inactive: 5.22%; to `Cc1cc(C)c(S(=O)(=O)N(C)CC(=O)NCCN2CCOCC2)c(C)c1`, inactive: -13.6%.
To `COc1cccc(NC(=O)c2ccc(NS(=O)(=O)c3cccs3)cc2)c1` belongs inactive: 10.9%.
Regarding `Cc1cc(NS(=O)(=O)c2ccc(NC(=O)CCCC(=O)O)cc2)nc(C)n1`, the “growth rescue (activation)” value is inactive: 13.3%.
